Results on 2 molecules are retold here after US20240368242A1 (SHATTUCK LABS, published 2024).

Test [1] deals with Galectin-1 (human, UniProt P09382). Description: microarray containing about 6,000 human membrane proteins.
Test [2] addresses T1, SLC51B (human, UniProt Q86UW2).
T1 construct: spot of the microarray of human membrane proteins; also called Solute Carrier Family 51 Beta Subunit
T1 sequence (single chain, looked up): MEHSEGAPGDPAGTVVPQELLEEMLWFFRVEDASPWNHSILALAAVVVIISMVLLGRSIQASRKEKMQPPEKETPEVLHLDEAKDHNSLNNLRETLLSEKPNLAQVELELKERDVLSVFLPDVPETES
Described as above.

Test [3] concerns the target recombinant human CD40 protein (human, UniProt P25942 fragment). Description: ELISA, plate-bound hCD40, detection with Goat αhCD40L and αGoat-HRP [third panel from the left]. (In an ELISA, binding on a coated surface is turned into a signal by an enzyme label.)
Sequence of UniProt P25942 (P25942 21-193 limits assumed): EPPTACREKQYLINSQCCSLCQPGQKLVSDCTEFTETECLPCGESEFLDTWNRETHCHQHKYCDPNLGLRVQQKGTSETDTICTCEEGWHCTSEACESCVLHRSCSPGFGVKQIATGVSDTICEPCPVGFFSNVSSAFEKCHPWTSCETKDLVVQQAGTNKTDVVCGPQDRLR
Test [4] deals with T2, recombinant human CD47 protein (human, UniProt Q08722 fragment, limits assumed).
T2 construct: also called hCD47
Description: ELISA, plate-bound hCD47, detection with Goat αhCD172a and αGoat-HRP [second panel from the left].

Test [5] deals with plate-bound human IgG. Description: ELISA, plate-bound capture drawn as hFc (legend: human IgG), detection with HRP Human αIgG [first panel from the left].
Test [6] concerns the target T3, human CD47 expressed on cells (HeLa/hCD47; Jurkat endogenous CD47) (human, UniProt Q08722).
T3 construct: whole, on cells
Description: flow cytometry on HeLa/hCD47 cells. From the text:
Cells were collected, washed, and stained with antibodies for the detection of the chimeric protein binding by flow cytometry.

Test [7] deals with T4, Human FcγR1A.
T4 construct: also called hFcγR1A
T4 chain: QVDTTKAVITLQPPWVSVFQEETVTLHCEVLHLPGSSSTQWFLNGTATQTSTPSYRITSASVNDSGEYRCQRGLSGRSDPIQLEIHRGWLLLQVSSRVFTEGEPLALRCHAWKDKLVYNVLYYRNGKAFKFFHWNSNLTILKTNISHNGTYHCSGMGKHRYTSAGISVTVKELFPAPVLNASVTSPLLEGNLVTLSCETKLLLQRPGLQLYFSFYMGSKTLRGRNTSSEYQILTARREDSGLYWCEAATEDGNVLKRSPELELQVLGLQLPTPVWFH
Description: SPR, 250 nM analyte on human FcγR1A. (In SPR one partner is held on a chip, and binding of the other changes the refractive index at the surface.)

Broadly, the EC50 is the midpoint of the concentration-response curve.

Sequence of UniProt P09382 (P09382 2-135 limits assumed): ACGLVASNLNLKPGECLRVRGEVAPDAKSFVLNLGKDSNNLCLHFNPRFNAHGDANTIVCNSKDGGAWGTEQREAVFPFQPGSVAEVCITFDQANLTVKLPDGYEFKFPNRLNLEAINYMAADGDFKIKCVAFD

B1: human CSF1R-Fc-CD40L chimeric protein (Fc fusion)
chain: [sequence of about 500 residues omitted]SKYGPPCPPCPAPEFLGGPSVFLFPPKPKDQLMISRTPEVTCVVVDVSQEDPEVQFNWYVDGVEVHNAKTKPREEQFNSTYRVVSVLTVLHQDWLSGKEYKCKVSSKGLPSSIEKTISNATGQPREPQVYTLPPSQEEMTKNQVSLTCLVKGFYPSDIAVEWESNGQPENNYKTTPPVLDSDGSFFLYSRLTVDKSRWQEGNVFSCSVLHEALHNHYTQKSLSLSLGKIEGRMDHRRLDKIEDERNLHEDFVFMKTIQRCNTGERSLSLLNCEEIKSQFEGFVKDIMLNKEETKKENSFEMQKGDQNPQIAAHVISEASSKTTSVLQWAEKGYYTMSNNLVTLENGKQLTVKRQGLYYIYAQVTFCSNREASSQAPFIASLCLKSPGRFERILLRAANTHSSAKPCGQQSIHLGGVFELQPGASVFVNVTDPSQVSHGTGFTSFGLLKL
B1: the binding result in test [1] and in test [2] was “binds” each time.

B2: human CD172a(SIRPα)-Fc-CD40L chimeric protein (Fc fusion)
chain: [sequence of about 350 residues omitted]SKYGPPCPPCPAPEFLGGPSVFLFPPKPKDQLMISRTPEVTCVVVDVSQEDPEVQFNWYVDGVEVHNAKTKPREEQFNSTYRVVSVLTVLHQDWLSGKEYKCKVSSKGLPSSIEKTISNATGQPREPQVYTLPPSQEEMTKNQVSLTCLVKGFYPSDIAVEWESNGQPENNYKTTPPVLDSDGSFFLYSRLTVDKSRWQEGNVFSCSVLHEALHNHYTQKSLSLSLGKIEGRMDHRRLDKIEDERNLHEDFVFMKTIQRCNTGERSLSLLNCEEIKSQFEGFVKDIMLNKEETKKENSFEMQKGDQNPQIAAHVISEASSKTTSVLQWAEKGYYTMSNNLVTLENGKQLTVKRQGLYYIYAQVTFCSNREASSQAPFIASLCLKSPGRFERILLRAANTHSSAKPCGQQSIHLGGVFELQPGASVFVNVTDPSQVSHGTGFTSFGLLKL
notes: Glycosylated; dominant dimer band on non-reduced Western blot; also called SL-172154; hCD172a(SIRPα)-Fc-CD40L
With B2, the EC50 was found to be 1.39 nM in test [3], 1.12 nM in test [4], 9.29 nM in test [5] and 21.5 nM in test [6]. Besides, the binding result in test [7] is “no binding (tested: 250 nM)”.
